# This is one part of the list. Further columns of the screen follow, without active or inactive calls. Most of these compounds were active or inconclusive in the main read-out, so they are no random draw.
# Test: growth inhibition of WT strain, primary screen, mitochondrial fusion inhibitor project, WT and mutant strains, chemical genetic (AID 1362); note: tested in S. cerevisiae
# Details: mitochondrial fusion phenotypic screen, at 10 µM
row,Compound,inhibition [%]
1,CN(C(=O)Nc1ccc(Cl)c(Cl)c1)c1ccccc1C(=O)O,71.5
2,Cc1ccc(NC(=S)Nc2cccc3cnccc23)c(C)c1,56
3,O=C(Nc1ccccc1N1CCCCC1)c1ccccc1F,47.6
4,COC(=O)Cc1ccc(N(Cc2ccccc2F)S(=O)(=O)c2ccc(C)cc2)cc1,6.46
5,COc1ccccc1N1CCN(CC(=O)Nc2ccc(Cl)c(C(F)(F)F)c2)CC1,5.07
6,COc1ccc(C2=NN(C(=O)c3cccs3)C(c3ccccc3OC)C2)cc1OC (stereo unspecified),57.3
7,CC(C)(C)N/N=C1\CC(c2ccccc2)Oc2ccccc21 (stereo unspecified),-2.57
8,CNc1oc(-c2ccc(Cl)cc2)nc1P(=O)(c1ccccc1)c1ccccc1,50.2
9,O=C(Nc1cccc(C(F)(F)F)c1)N(Cc1ccc(Cl)cc1)CC(O)C(F)(F)F (stereo unspecified),43.1
10,Cc1ccc(C)c(NC(=S)N(Cc2ccco2)C(C)c2cccs2)c1 (stereo unspecified),19.8
11,CCOC(=O)c1c(C)sc(Sc2ccc(Cl)cc2[N+](=O)[O-])c1OC,56.2
12,CC(Sc1nc2ccccc2n1C)C(=O)NC(c1ccccc1)c1ccccc1 (stereo unspecified),24.7
13,COC(=O)c1[nH]c2cccc(Cl)c2c1NC(=O)CN(C)C1CCCCC1,45.9
14,c1ccc2c(c1)CCN(c1ncnc3c1[nH]c1ccccc13)C2,-2.77
15,Cc1[nH]n(C2=NCCS2)c(=O)c1N=Nc1cccc(C(F)(F)F)c1,79.1
16,CC(=O)Nc1ccc(NC(=O)CSc2nnc(-c3ccccc3)n2Cc2ccc3c(c2)OCO3)cc1,18.5
17,COc1ccc(-c2nnc(SCc3cc(C)cc(C)c3)o2)cc1,9.53
18,CCOC(=O)c1c(C)oc2ccc(OC(=O)c3cccs3)cc12,28.9
19,O=C(Nc1ccc(Cl)cc1)N1CCC(c2nc(-c3ccccc3Cl)no2)CC1,64.3
20,Cc1cc(CC(C)C)n(-c2nc3ccccc3c(=O)n2OCc2ccccc2)n1,3.84
21,CCC(/C=C1\Sc2ccc(OC)cc2N1CCO)=C\c1sc2ccc(OC)cc2[n+]1CCO,62.7
22,S=c1[nH]nc(C2CC2c2ccc(Cl)cc2)n1-c1ccc(Cl)cc1 (stereo unspecified),54.9

row,Compound,inhibition [%]
1,Cn1c(C(=O)N2CCc3ccccc3C2)cc2oc3ccccc3c21,42.1
2,CCNc1nc(NC(C)(C)C)nc(N2CCCC2)n1,45.5
3,c1cc2c(cc1C1CCCCC1)c1c3n2CCN=C3CCC1,91.4
4,CC1CC(C)CN(c2ncnc3c2cnn3-c2ccc(Cl)cc2)C1 (stereo unspecified),15.7
5,CCOC(=O)C1C(=O)C=C(c2ccc(Br)cc2)CC1c1ccco1 (stereo unspecified),25
6,CC(C)(C)NS(=O)(=O)c1cnc(Cl)c(Cl)c1,1.14
7,CCCCOC(=O)Nc1cccc(C(=O)OCC)c1,-3.02
8,CC1CC(C)CN(c2ncc3c(n2)CC(c2ccccc2)CC3=O)C1 (stereo unspecified),32.9
9,COc1ccc(-c2cc3nc(-c4ccccc4)cc(N4CCCC(O)C4)n3n2)cc1 (stereo unspecified),26.4
10,CCC(C)(C)NC(=O)C(c1ccc(C)cc1)N(Cc1cccs1)C(=O)c1ccc2c(c1)OCCO2 (stereo unspecified),2.65
11,CC(C)(C)c1ccc(OCCC(=O)NC2=NCCS2)cc1,66.7
12,O=C(/C=C/c1ccc(Cl)cc1)NC(=S)NN1CCCCC1c1cccnc1 (stereo unspecified),23.8
13,O=[N+]([O-])c1ccc(N/N=C/c2c[nH]c3ccccc23)cc1,71
14,Cc1ccccc1NC(=S)NCCC(c1ccccc1)c1ccccc1,65
15,Brc1cnc(N2CCCCC2)nc1N1CCOCC1,3.71
16,CCCCN=C(NNc1ccc(Br)cc1)C(=O)OCC,56
17,NC(=S)n1[nH]c(-c2ccc([N+](=O)[O-])cc2)c(N=Nc2ccc(Cl)cc2)c1=O,26.7
18,COc1ccc(NC(=O)c2ccc(-c3ccccc3C(F)(F)F)o2)cc1,-0.39
19,Cc1nn(-c2ccccc2)c(N)c1N=Nc1ccc2ccccc2c1,67.3
20,Cn1cccc1/C=C1\CCc2ccccc2C1=O,49.6
21,CC1CN(c2nc3ccccc3cc2-c2ccccc2)CC(C)O1 (stereo unspecified),67.1
22,c1ccc2c(c1)ncn2CCCOc1ccc2c(c1)CCC2,61.4

row,Compound,inhibition [%]
1,O=S(=O)(Nc1cc(Cl)ccc1N1CCCCC1)c1cccs1,39.2
2,NS(=O)(=O)c1ccc(N/N=C2/CCCCC2C2CCCCC2)c([N+](=O)[O-])c1 (stereo unspecified),92.5
3,CO/N=C\c1cc(C(=O)c2ccc(Cl)cc2Cl)cn1C,31.6
4,CCOC(=O)/C(C#N)=C1\Nc2ccccc2N=C1N(CC(C)C)CC(C)C,28.5
5,CC(C)C(c1nnnn1C(C)(C)C)N1CCN(c2cccc(Cl)c2)CC1 (stereo unspecified),53.5
6,O=C(/C=N/O)NCCN1CCCCC1,17.7
7,CSC1=NC(C)(C)C=C(/C=C/c2ccc(Cl)cc2Cl)N1,63.2
8,COc1ccccc1-c1c(C)nn2c(N3CCCCCC3)cc(C)nc12,55.7
9,Cc1cc(Cl)ccc1NC(=S)NCCC(c1ccccc1)c1ccccc1,17.6
10,CC(C)(C)c1ccc(Cn2c(=N)n(CC(O)c3ccco3)c3ccccc32)cc1 (stereo unspecified),29.6
11,CC#CC[N+](C)(C)CCCCCCCCCCCC,70.2
12,CC(NC(=O)/C(=C/c1ccc(OC(F)F)cc1)c1ccccc1)c1ccccc1 (stereo unspecified),12.6
13,S=C1NCCc2ccc(Cl)cc2C1c1ccccc1 (stereo unspecified),62.3
14,CCOC(=O)c1c(NC(=O)c2cccs2)sc2c1CCN(C(=O)OCC)C2,17.7
15,CC(C)(C)c1ccc(/C=N/NC(=S)Nc2cccnc2)cc1,35
16,CCOC(=O)C1=CN(c2cccc(F)c2)C=C(C(=O)OCC)C1c1cc(OC)c(O)c([N+](=O)[O-])c1,-2.03
17,Cc1ccc(S(=O)(=O)Nc2ccccc2-c2ccccc2NS(=O)(=O)c2ccc(C)cc2)cc1,17.6
18,CN1C=C/C(=C\c2cc[n+](C)c3ccccc23)c2ccccc21,67.9
19,CCOC(=O)/C(=C/c1ccc(N2CCC(c3ccccc3)=N2)cc1)C(C)=O,6.01
20,Cc1cccc(N2CCN(C(=O)c3cc4c(C)nc5ccccc5c4o3)CC2)c1C,7.86
21,COc1ccc(CCn2nnnc2C(CC(C)C)N2CCN(c3ncccn3)CC2)cc1OC (stereo unspecified),6.51
22,CCCCn1c2ccccc2c2nnc(SCC(=O)NC3=NN=C(c4ccccc4)CS3)nc21,14.8

row,Compound,inhibition [%]
1,CC1=NN(/C(=N\c2nnc(C)s2)Nc2ccc(C(C)(C)C)cc2)[C@H](c2ccc(C)cc2)S1,30.7
2,CC(Nc1ccc(Cl)cc1)c1cc(Cl)ccc1O (stereo unspecified),50.6
3,CN(C)S(=O)(=O)c1ccc(C(=O)Nc2nnc(-c3ccc4c(c3)CCCC4)o2)cc1,-6.25
4,O=C(COc1cccc2ccccc12)Nc1nc2ccccc2[nH]1,54.1
5,CC1C(c2ccccc2)N(C)C(c2ccccc2)CC1(O)c1ccccc1 (stereo unspecified),14.6
6,Clc1ccc(-c2nc(N3CCCCC3)nc3ccccc23)cc1,27.8
7,CCCCNC(=O)C1=C(N)C(C(=O)Nc2ccc(C)c(S(=O)(=O)N3CCCCC3)c2)SC1=Nc1ccc(C)cc1C (stereo unspecified),-1.36
8,CCCCOC(=O)c1ccc(NC(=O)c2nn(C)cc2Br)cc1,23.1
9,O=C(CSCC(=O)N1CCCCC1)Nc1nc(-c2ccc(Cl)s2)cs1,58.9
10,CC(=O)N1/C(=C/c2ccc(N(C)C)cc2)C(=O)c2ccccc21,16.4
11,O=C(C1=C[C@@H](c2csc3ccccc23)C[C@@H](OCc2ccc(CO)cc2)O1)N1CCN(Cc2ccccc2)CC1,10.2
12,Oc1cccc(C(O)CNCc2ccc(OCc3ccc(Cl)cc3Cl)cc2)c1 (stereo unspecified),30.4
13,S=C(NCC1CCCO1)NC12CC3CC(CC(C3)C1)C2 (stereo unspecified),45.4
14,C/C(=N\N=C(/N)SC1CC(=O)N(c2ccc(Cl)c(Cl)c2)C1=O)c1cccs1 (stereo unspecified),94.9
15,Cc1cccc(/C(N)=N/OC(=O)N2c3ccccc3Sc3ccccc32)c1,53.5
16,Cc1ccc(-n2cc(-c3ccccc3)c3c(N4CCN(C)CC4)ncnc32)cc1,51.7
17,Nc1c(-c2ccccc2)c(CSc2nc3ccccc3[nH]2)nn1-c1cccc(Cl)c1,27.2
18,Cc1nc(NC(=O)c2ccccc2)sc1-c1csc(Nc2cccc(F)c2)n1,14
19,CC1(C)CC(CCN(Cc2ccccc2)C(=O)c2ccco2)(c2ccccc2)CCO1 (stereo unspecified),17.1
20,CCOc1ccc(-c2[nH]ncc2Oc2ccccc2OCC)c(O)c1,-6.53
21,O=C(COC(=O)c1ccccc1[N+](=O)[O-])c1ccc(C2CCCCC2)cc1,23.4
22,COc1cccc(C(C)NC(=S)NCc2ccc(Cl)cc2)c1 (stereo unspecified),37.1

row,Compound,inhibition [%]
1,CCOC(=O)C1=C(NC(=S)NC(=O)c2ccccc2)c2ccccc2CC1C(C)C (stereo unspecified),28.9
2,Cc1ccc(Sc2ccc(CN3CCCCC3)cc2[N+](=O)[O-])cc1,47.9
3,CCCCCCOc1ccc(NC(=O)CC2C(=O)N(CC)C(=S)N2Cc2ccco2)cc1 (stereo unspecified),20.4
4,S=C(NCCC(c1ccccc1)c1ccccc1)Nc1cccc(Cl)c1,37.7
5,O=C(c1ccc(C#Cc2ccccc2)o1)N1CCN(c2ccccn2)CC1,32.3
6,CCC(C)(C)c1ccc(OCCCC[n+]2ccc(C)cc2)c(C(C)(C)CC)c1,97.7
7,COc1cccc(C2Nc3c(F)cc(Br)cc3C3C=CCC32)c1OC (stereo unspecified),6.21
8,CC(=O)OCCCNc1cc(Sc2nc3ccccc3s2)c2nonc2c1[N+](=O)[O-],92.6
9,COc1ccccc1NC(=S)NC(=O)c1c(-c2ccccc2Cl)noc1C,36.6
10,CC(=O)N1N=C(c2cccc(Cl)c2)OC1c1ccc(C(C)C)cc1 (stereo unspecified),48
11,O=C1NN=C(c2ccc(Cl)cc2)CC1c1c[nH]c2ccccc12 (stereo unspecified),36.1
12,CC(C)CNS(=O)(=O)c1ccc(S(=O)(=O)N2CCCN(Cc3ccccc3)C2)cc1,-3.95
13,CC(=O)Nc1sc2c(c1-c1nc3ccccc3s1)CCN(C(C)C)C2,52.7
14,CCOc1ccc(NS(=O)(=O)c2cnc(Cl)c(Cl)c2)cc1,-12.9
15,CC(/C=N/Nc1nc2ccccc2[nH]1)=C\c1ccccc1,88
16,O=S(=O)(Nc1ccc(-n2cccc2)cc1)c1ccc(Cl)cc1Cl,84
17,Cc1nnc(NC(=O)c2sc3nc(-c4cccs4)cc(C(F)(F)F)c3c2N)s1,8.72
18,COc1ccc(C(=O)Nc2ccccc2C(=O)N/N=C/c2cccc3ccccc23)cc1,60

# Source: PubChem BioAssay AID1362 (SRMLSC, 2008)
